The values that follow come from PubChem BioAssay AID1346428 (National Center for Advancing Translational Sciences (NCATS), 2018).

Each structure is given as a SMILES string. Screen size: about 48,000 compounds; about 1,200 (2.5%) were called active. Inconclusive results (about 2%) are left out.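 How the source made its calls: active means activation of at least 60% and not above a set upper limit (about 1 call in 100 departs from these limits); inconclusive means activation of 40% to 60%, or above that upper limit; inactive means activation under 40%.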 This is one part of the list.

UniProt O75388, sequence (O75388 whole entry, looked up): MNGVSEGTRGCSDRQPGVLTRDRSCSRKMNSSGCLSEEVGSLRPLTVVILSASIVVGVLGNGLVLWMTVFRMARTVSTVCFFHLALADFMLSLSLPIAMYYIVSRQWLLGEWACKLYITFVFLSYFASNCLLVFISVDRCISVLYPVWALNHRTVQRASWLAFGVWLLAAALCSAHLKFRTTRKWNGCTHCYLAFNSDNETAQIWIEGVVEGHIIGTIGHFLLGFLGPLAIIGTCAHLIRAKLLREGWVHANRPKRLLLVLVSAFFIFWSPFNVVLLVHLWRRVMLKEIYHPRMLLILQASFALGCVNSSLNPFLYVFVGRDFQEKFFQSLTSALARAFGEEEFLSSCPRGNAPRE

The test addresses Probable G-protein coupled receptor 32 (Homo sapiens) (UniProt O75388). In words: qHTS for Agonists of Human Resolvin D1 Receptor DRV1. Particulars: CHO-K1 GPR32 beta-arrestin PathHunter luminescence, 90 min; at 76.9 µM; hits give high values; zero percent set by DMSO-only wells. In short, it runs like this:
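Using DMSO wells as EC0, agonist-induced signal was taken as chemiluminescence from beta-Gal reconstituted upon beta-arrestin recruitment to GPR32 in CHO-K1 cells after 90 min compound treatment.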
(In qHTS, concentration-response curves come from the screen itself.)
In the case of `COc1ccc(CCNC(=O)CSc2nc3nc(C)c(Cc4ccc(C)cc4)c(C)n3n2)cc1OC`, the activation is inactive: -8.87%.
For `COc1ccc(-n2cc(C(=O)N(CCN(C)C)Cc3ccccc3)c3ccccc3c2=O)cc1`, the activation is inactive: -11.1%.
Then `Cc1ccc(/C=C/C(=O)Nc2nc(-c3cccs3)ns2)cc1`, with active: 70.4%; and `CCOc1ccc2nc(N3CCN(C(=O)c4ccc(S(=O)(=O)CC)cc4)CC3)sc2c1`, with inactive: 4.28%; and `COc1ccc(Cn2c(=O)[nH]c3cc(C(=O)NCCC(C)C)ccc3c2=O)cc1`, with inactive: 2.75%.
With `COc1ccc(CNC(=O)CS(=O)Cc2nc(-c3ccc(OC)c(OC)c3)oc2C)cc1` (stereo not drawn) the figure was inactive: -1.46%.
On to `CCn1c(C)c(C)c2cc(C(=O)NCCCN3CCCCC3C)ccc21` (stereo not drawn), for which the activation was inactive: 2.13%.
Turning to `Cc1ccc(N(CC(=O)Nc2cccc(Cl)c2C)S(=O)(=O)c2c(C)noc2C)cc1`, the activation was inactive: -0.247%.
Consider `C=C(CC)C(=O)c1ccc(OCC(=O)O)c(Cl)c1Cl`, for which the activation is active: 89.6%.
Then `COc1cc(C(=O)N(Cc2ccc(F)cc2)Cc2ccco2)cc(OC)c1OC`, with inactive: -15.1%; and `COc1cc(-c2nc(-c3ccc4c(c3)[nH]c(=O)n4C)no2)cc(OC)c1OC`, with inactive: -2.27%.
Turning to `CCOc1ccccc1NC(=O)C1CCN(S(=O)(=O)c2ccc3[nH]c(=O)ccc3c2)CC1`, the activation is inactive: 9.11%.
With `COc1ccc(-n2c(/C=C/c3cccc(C(F)(F)F)c3)nc3ccccc3c2=O)cc1Cl` the figure was inactive: -5.34%; with `CCOc1ccc(CCNC(=O)C2CCN(Cc3nc(-c4ccc(OC)c(OC)c4)oc3C)CC2)cc1OCC`, inactive: 32.1%; with `C[N+](C)(C)CCOP(=O)(O)OP(=O)([O-])OC[C@H]1O[C@@H](n2ccc(N)nc2=O)[C@H](O)[C@@H]1O`, inactive: 3.66%.
Then `Cn1cc(S(=O)(=O)N2CCCCCC2)cc1C(=O)N1CCN(c2cccc(C(F)(F)F)c2)CC1`, with inactive: 11.2%.
With `CCC(=O)N1CCc2cc(Br)cc(S(=O)(=O)N3CCCC(C(=O)NCc4ccc(F)cc4)C3)c21` (stereo not drawn) the figure was inactive: -0.352%; with `Cc1ccc(S(=O)(=O)N2CCN(Cc3cc(Br)ccc3O)CC2)cc1`, inactive: -1.34%; with `Cc1ccn2c(=O)cc(COc3ccc(NC(=O)COc4ccccc4)cc3)nc2c1`, inactive: 4.13%.
With `N#Cc1ccccc1NC(=O)C(=O)NCCc1csc(-c2ccc(C(F)(F)F)cc2)n1`, the activation is inactive: -2.05%.
As for `CCc1ccc(NC(=O)COC(=O)CCCC2=NS(=O)(=O)c3ccccc3N2)cc1`, the activation is active: 64.2%.
With `O=C1CSC2(C(=O)N(Cc3ccccc3)c3ccccc32)N1c1cccc(F)c1` (stereo not drawn) the figure was inactive: -27.9%.
In the case of `COc1ccc(-c2nnc(SCC(=O)Nc3cc(OC)ccc3OC)nc2-c2ccc(OC)cc2)cc1`, the activation is inactive: -37.5%.
Turning to `Cc1ccc2nc(COc3ccccc3NC(=O)c3ccccc3C)cc(=O)n2c1`, the activation was inactive: -1.01%.
Then `COc1ccc(OC)c(NC(=O)c2ccc3c(SCC(=O)O)c4c(nc3c2)CCCC4)c1`, with inactive: -4.62%.
Then `COc1cc2c(cc1OC)C1CC(=O)C(CC(C)C)CN1CC2` (stereo not drawn), with inactive: -18.5%.
Regarding `Cc1cccc(CCNC(=O)c2ccc3c(c2)nc2n3CCC(C)C2)c1` (stereo not drawn), the activation was inactive: -17.8%.
Consider `COc1ccc(CCn2c(=O)c3cccnc3n(CC(=O)Nc3c(C)cccc3C)c2=O)cc1OC`, for which the activation is inactive: -8.72%.
For `CCc1cccc(C)c1NC(=O)Cn1c(=O)n(-c2ccc(C)cc2)c(=O)c2c1cnn2C`, the activation is inactive: -18.1%.
For the compound `O=S(=O)(c1ccc(Cl)cc1)c1nc(-c2cccc(Br)c2)oc1NCc1ccccc1`, the activation is inactive: 17.5%.
With `O=C(c1ccco1)N1CCN(c2nc3c(F)cc(F)cc3s2)CC1` the figure was inactive: 13.4%; with `Nc1ccc(S(=O)(=O)NC(=O)c2ccccc2)cc1`, inactive: 3.79%; with `Cc1cccc(-c2noc(-c3ccc(NCc4ccco4)c([N+](=O)[O-])c3)n2)c1`, inactive: 25.9%.
Then `COc1cccc(-c2ccc(-c3noc(-c4ccccc4Br)n3)c(OC)n2)c1`, with inactive: 1.68%; and `CCCC[C@@]1(C2CCCC2)Cc2cc(OCC(=O)O)c(Cl)c(Cl)c2C1=O`, with inactive: -2.04%.
Consider `CCC(=O)N1c2ccccc2CC1C(=O)NCc1cccc(OC)c1OC` (stereo not drawn), for which the activation is inactive: 18%.
Then `CCOc1ccc(-c2cn3c(n2)sc2cc(C(=O)NCCC4=CCCCC4)ccc23)cc1`, with inactive: -17.1%.
With `CCOc1ccc(NC(=O)CSc2nnc(CC)c(CC)n2)cc1` the figure was inactive: -4.16%; with `CCN(CC)CCNC(=O)C1CCCN(c2nnc(C)c3c(C)n(-c4ccc(Cl)cc4)nc23)C1` (stereo not drawn), inactive: -4.39%; with `COc1ccccc1CNC(=O)c1ccc(NC(=O)N2CC(C)Sc3ccccc32)cc1` (stereo not drawn), inactive: -19.1%.
Then `Cc1cccc(C)c1NC(=O)C1CCCN(S(=O)(=O)c2c(C)noc2/C=C/N(C)C)C1` (stereo not drawn), with inactive: -23.2%; and `COc1ccc(S(=O)(=O)NCC(c2ccco2)S(=O)(=O)c2ccc(C)cc2)cc1C` (stereo not drawn), with inactive: -23.1%.
With `CCCCCCCCCCCCCCCC(=O)NCC(COP(=O)([O-])OCC[N+](C)(C)C)OCC` (stereo not drawn), the activation is inactive: 7.91%.
As for `Cc1cccc(OCC(=O)Nc2ccc(C(=O)OCc3cc(=O)n4nc(C5CC5)sc4n3)cc2)c1`, the activation is inactive: -5.52%.
Then `COC(=O)c1ccc(NC(=O)CSc2ccc(-c3cccs3)nn2)cc1`, with inactive: 2.12%.
Then `Cc1ccc(-c2noc(-c3cccnc3NCc3ccc(Cl)cc3)n2)cc1`, with inactive: 4.61%.
Then `Cc1ccc(-c2nc3scc(CCNS(=O)(=O)c4ccc(C)c(C)c4)n3n2)cc1`, with inactive: 7.42%.
With `CCOC(=O)c1cc(-c2ccc(C)cc2)n(CCC(=O)NCc2ccccc2)c1C`, the activation was inactive: -19.5%.
As to `CCCc1ncc(C[n+]2ccccc2C)c(N)n1`, the activation is inactive: -5.43%.
As to `COc1ccc2cc(S(=O)(=O)c3ccccc3F)c(=O)oc2c1`, the activation is inactive: -6.46%.
With `CCc1ccc(NC(=O)C(Cc2ccccc2)NS(=O)(=O)c2ccc3c(c2)CCN3C(C)=O)cc1` (stereo not drawn) the figure was inactive: -6.84%.
With `Cc1cc(C)c(NC(=O)c2cc(CN3CCOCC3)on2)c(C)c1`, the activation is inactive: -1.85%.
Regarding `CCOc1ccc(Sc2cc(C(=O)NCCCOC)c3ccccc3n2)cc1`, the activation was inactive: -4.36%.
Consider `C#CCOc1ccc(C2C(C(=O)OC)=C(C)NC3=C2C(=O)c2ccccc23)cc1OCC` (stereo not drawn), for which the activation is inactive: -40.9%.
With `COc1ccc(N2CC(NC(=O)c3cccs3)CC2=O)cc1OC` (stereo not drawn) the figure was inactive: 0.998%; with `O=S(=O)(NCCc1csc(-c2ccc(F)cc2)n1)c1ccc(F)cc1F`, inactive: -3.31%; with `O=C(Nc1ccc(F)cc1)c1ccc(-n2cnnc2)cc1`, inactive: 15.1%.
As for `CCc1ccc(-c2[nH]c3c(c2-c2c(-n4cccc4)n(C)c(=O)[nH]c2=O)c(=O)[nH]c(=O)n3C)cc1`, the activation is inactive: -1.28%.
Regarding `O=C1NC(=O)C(c2ccccc2[N+](=O)[O-])=C1Nc1ccc(O)c(Cl)c1`, the activation was inactive: -9.28%.
Then `CC(=O)Nc1ccc(NS(=O)(=O)c2ccc3c(c2)CCCN3C(C)=O)cc1`, with inactive: -1.34%; and `O=C(Nc1nnc(S(=O)(=O)N2CCCCC2)s1)c1ccc(Cl)cc1`, with inactive: 20.1%.
With `COc1ccc(-n2ncc(C(=O)Nc3ccc(C)cc3Cl)c2C2CCN(C(=O)OC(C)(C)C)CC2)cc1` the figure was inactive: -26.6%.
Then `CCn1cc(C(=O)NCCCN(CC(C)C)CC(C)C)c(=O)c2cc(S(=O)(=O)N3CCc4ccccc4C3)ccc21`, with inactive: -0.578%; and `Cc1ccc(-c2nnc(SCC(=O)NCCC(C)C)nc2-c2ccc(C)cc2)cc1`, with inactive: -32.3%.
Turning to `COc1cccc(C2=NS(=O)(=O)N(C)C(C(=O)Nc3cccc(O)c3)=C2)c1`, the activation was inactive: -16.3%.
Regarding `Cc1cc(OCC(=O)NCC2(N(C)C)CCCCC2)cc(C)c1Cl`, the activation is inactive: -0.795%.
Take `CCN1CCN(C(c2cccc(Cl)c2)c2c(O)cc(C)n(CCOC)c2=O)CC1` (stereo not drawn): the activation is inactive: -13.1%.
With `Cc1ccc(CCNC(=O)CN2C(=O)COc3ccc(S(=O)(=O)N4CCC(C)CC4)cc32)cc1` the figure was inactive: -31.5%; with `COc1ccc(CC(=O)Nc2ccc(-c3nc4ccccc4s3)cc2Cl)cc1`, inactive: 0.347%.
`Cc1cc(NC(=O)C2CCCN(S(=O)(=O)c3ccc(Br)s3)C2)ccc1Br` (stereo not drawn): the activation is inactive: -13.9%.
As for `COc1ccc(N2CCN(C(CNC(=O)C(=O)NCc3ccc(F)cc3)c3cccnc3)CC2)cc1` (stereo not drawn), the activation is inactive: -9.58%.
As to `CCc1ccc(NC(=O)N(Cc2c[nH]c3ccccc23)C2CCCCCC2)cc1`, the activation was inactive: -28.1%.
With `O=C(NCc1ccccc1)C(=O)NCC(c1ccco1)S(=O)(=O)c1ccccc1` (stereo not drawn) the figure was inactive: -1.49%; with `Cc1cc2nn(-c3ccc(F)cc3)nc2cc1NC(=O)c1cc(Cl)ccc1Cl`, inactive: 7.85%; with `CCCCN1C(=O)C(O)(c2c(C)[nH]c3ccccc23)c2cc(Br)ccc21` (stereo not drawn), inactive: -26%.
With `CCCN(CCC)c1nn2c(=O)c(C(=O)NCc3cccc(OC)c3)cnc2s1` the figure was inactive: -16.5%.
Consider `N#C/C(=C\c1ccc(O)c(O)c1)C(=O)Nc1ccccc1`, for which the activation is inactive: -26.7%.
On to `COc1ccc(Cl)cc1NC(=O)CSc1nnc(C)n2c1cc1occc12`, for which the activation is inactive: -9.62%.
Then `CN1CCN(C(=O)c2cnn(-c3cccc(F)c3)c2C2CCN(C(=O)OC(C)(C)C)CC2)CC1`, with inactive: -11.6%; and `Cc1ccc(C)c(CSc2c(C(C)C)cnc3c2c(=O)n(C)c(=O)n3C)c1`, with inactive: -20.6%; and `COc1ccc(N2CCN(C(CNC(=O)c3ccc(C)cc3)c3ccc4c(c3)OCO4)CC2)cc1` (stereo not drawn), with inactive: -30.4%.
Regarding `CCOc1ccc(/C=C/c2nc(C#N)c(N(C)C)o2)cc1`, the activation was inactive: -6.26%.
In the case of `Cc1ccc(NC(=O)Cn2cc(S(=O)(=O)N3CCN(c4ccccc4F)CC3)c3ccccc3c2=O)cc1F`, the activation was inactive: 7.5%.
